Test results as given in a collection of fitness landscapes (doi:10.1038/s41467-024-54723-y).
In all, about 18,000 sequences were measured (“TetR repression strength (sort-seq, GFP reporter)”: median about 0.23, highest 2% from about 0.68 on). The list shows a part of the results.

Target: TetR (class B, Tn10) (UniProt P04483)
Assay: TetR repression strength (sort-seq, GFP reporter) (relative to tetO2 = 1); higher = stronger repression
Conditions: E. coli
How it was run: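 Repression strength is the top bin index plus one minus the read-weighted mean bin, relative to the unaltered operator's value. A low-copy library in E. coli SIG10-MAX randomized eight operator positions between a constitutive promoter and sfGFP, with TetR expressed constitutively; cells grew 5 h at 37 °C in LB with 50 µg/mL chloramphenicol and 10^6 were FACS-sorted into 13 bins that were each Illumina-sequenced. Three independent transformations were averaged, keeping only members with ≥30 reads in all replicates and CV ≤0.5.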

UniProt P04483, sequence (P04483 whole entry): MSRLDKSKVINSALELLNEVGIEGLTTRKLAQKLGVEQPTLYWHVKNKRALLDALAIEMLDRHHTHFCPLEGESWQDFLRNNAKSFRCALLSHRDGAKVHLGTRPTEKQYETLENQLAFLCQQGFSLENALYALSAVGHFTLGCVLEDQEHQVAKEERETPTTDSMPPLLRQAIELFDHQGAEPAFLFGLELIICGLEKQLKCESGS

| Sequence | TetR repression strength |
| --- | --- |
| TCCCAAAGAGTGGCGGAGA | 0.258 |
| TCCCTTGTAGTGGTTGAGA | 0.221 |
| TCCCATGCAGTCCTGGAGA | 0.358 |
| TCCCGCACAGTATTAGAGA | 0.422 |
| TCCCCAAGAGTGTGGGAGA | 0.181 |
| TCCCGTTCAGTGAGTGAGA | 0.604 |
| TCCCTCTAAGTGCAGGAGA | 0.288 |
| TCCCCGAAAGTGGTCGAGA | 0.0236 |
| TCCCAGGTAGTGGAGGAGA | 0.104 |
| TCCCATACAGTGGCCGAGA | 0.167 |
| TCCCATTCAGTCATGGAGA | 0.279 |
| TCCCTATCAGTGCACGAGA | 0.569 |
| TCCCGCCAAGTGTAGGAGA | 0.303 |
| TCCCAGCTAGTGGGCGAGA | 0.161 |
| TCCCCGTGAGTTAGTGAGA | 0.0305 |
| TCCCGAACAGTATTTGAGA | 0.259 |
| TCCCTCGCAGTGGATGAGA | 0.323 |
| TCCCTATAAGTGATAGAGA | 0.994 |
| TCCCGAGTAGTACGGGAGA | 0.301 |
| TCCCGTCCAGTTCGCGAGA | 0.21 |
| TCCCAGTGAGTGGCGGAGA | 0.264 |
| TCCCGATGAGTTTTTGAGA | 0.174 |
| TCCCATTCAGTTGACGAGA | 0.141 |
| TCCCTCAAAGTGGCGGAGA | 0.157 |
| TCCCGATTAGTAGAAGAGA | 0.187 |
| TCCCGTTAAGTGTGGGAGA | 0.237 |

| Sequence | TetR repression strength |
| --- | --- |
| TCCCGCACAGTGCTTGAGA | 0.271 |
| TCCCGCCAAGTCTTGGAGA | 0.182 |
| TCCCTTTGAGTAGATGAGA | 0.173 |
| TCCCTAGCAGTTGCGGAGA | 0.38 |
| TCCCAGTTAGTGTTTGAGA | 0.366 |
| TCCCTCTCAGTGGTTGAGA | 0.198 |
| TCCCGCAAAGTAGGGGAGA | 0.149 |
| TCCCGGATAGTAAAGGAGA | 0.273 |
| TCCCGGCCAGTTAAGGAGA | 0.274 |
| TCCCCCCAAGTAGACGAGA | 0.233 |
| TCCCGCTCAGTAGTCGAGA | 0.246 |
| TCCCTTTAAGTAGCCGAGA | 0.238 |
| TCCCGGCGAGTTAGAGAGA | 0.12 |
| TCCCTTTTAGTCAGGGAGA | 0.137 |
| TCCCCGCCAGTTCGGGAGA | 0.19 |
| TCCCGCGGAGTTGGCGAGA | 0.165 |
| TCCCAGTCAGTATTTGAGA | 0.165 |
| TCCCAATGAGTGCGCGAGA | 0.248 |
| TCCCGTTAAGTGACGGAGA | 0.132 |
| TCCCTTTCAGTGATAGAGA | 0.785 |
| TCCCGAGTAGTAATCGAGA | 0.232 |
| TCCCCATGAGTGGGTGAGA | 0.06 |
| TCCCCTGAAGTAGTCGAGA | 0.428 |
| TCCCCGCAAGTATGAGAGA | 0.321 |
| TCCCTTCGAGTCGTGGAGA | 0.293 |
| TCCCTTGTAGTCAAAGAGA | 0.1 |

| Sequence | TetR repression strength |
| --- | --- |
| TCCCTGTAAGTTATGGAGA | 0.223 |
| TCCCTGTTAGTGGGTGAGA | 0.102 |
| TCCCGTTTAGTAGCAGAGA | 0.248 |
| TCCCCCCCAGTTGTGGAGA | 0.523 |
| TCCCTGTCAGTAGCCGAGA | 0.255 |
| TCCCTAGTAGTGGTAGAGA | 0.21 |
| TCCCACCTAGTCGCCGAGA | 0.278 |
| TCCCTAAGAGTTACTGAGA | 0.3 |
| TCCCCTGTAGTGCGTGAGA | 0.126 |
| TCCCGGGGAGTCCAGGAGA | 0.247 |
| TCCCCCAAAGTAGGTGAGA | 0.0427 |
| TCCCCATAAGTTCTGGAGA | 0.224 |
| TCCCCTGGAGTGGGGGAGA | 0.217 |
| TCCCGGGAAGTCGTGGAGA | 0.256 |
| TCCCACAGAGTTATGGAGA | 0.179 |
| TCCCCTCTAGTGACAGAGA | 0.243 |
| TCCCAGCTAGTTTCTGAGA | 0.207 |
| TCCCGAGCAGTTAGCGAGA | 0.0122 |
| TCCCTGTCAGTGAGCGAGA | 0.341 |
| TCCCCGCCAGTATGTGAGA | 0.278 |
| TCCCATTCAGTGGCTGAGA | 0.44 |
| TCCCCGCGAGTATAGGAGA | 0.329 |
| TCCCGCAGAGTTAGGGAGA | 0.187 |
| TCCCTACTAGTGGTTGAGA | 0.298 |
| TCCCTCTGAGTTATTGAGA | 0.364 |
| TCCCGGTAAGTCCCGGAGA | 0.00576 |

| Sequence | TetR repression strength |
| --- | --- |
| TCCCCTTCAGTGCAGGAGA | 0.207 |
| TCCCGATAAGTCATTGAGA | 0.204 |
| TCCCATAGAGTGCGGGAGA | 0.0603 |
| TCCCATATAGTAAGTGAGA | 0 |
| TCCCATACAGTTTCAGAGA | 0.263 |
| TCCCTGTCAGTATTTGAGA | 0.378 |
| TCCCATTCAGTTCTAGAGA | 0.515 |
| TCCCACCCAGTGTGGGAGA | 0.202 |
| TCCCAACGAGTAACGGAGA | 0.304 |
| TCCCGTCTAGTGGGGGAGA | 0.224 |
| TCCCCATCAGTGTAGGAGA | 0.0525 |
| TCCCCATTAGTGCCTGAGA | 0.283 |
| TCCCTTCAAGTCAGAGAGA | 0.144 |
| TCCCCTATAGTAGCGGAGA | 0.0977 |
| TCCCAGTAAGTGTCGGAGA | 0.811 |
| TCCCCAGTAGTACCCGAGA | 0.269 |
| TCCCAGACAGTAACAGAGA | 0.206 |
| TCCCTTTGAGTAGAGGAGA | 0.167 |
| TCCCTAGTAGTGTGCGAGA | 0.0393 |
| TCCCAGGGAGTGTAAGAGA | 0.179 |
| TCCCCGTGAGTCTTTGAGA | 0.37 |
| TCCCCTAAAGTTTTAGAGA | 0.251 |
| TCCCAATCAGTATAGGAGA | 0.361 |
| TCCCTGACAGTCGGTGAGA | 0.106 |
| TCCCGGCGAGTTGATGAGA | 0.331 |
| TCCCTCTCAGTGGATGAGA | 0.386 |

| Sequence | TetR repression strength |
| --- | --- |
| TCCCAGGGAGTGGGAGAGA | 0.127 |
| TCCCTGCAAGTGGAAGAGA | 0.276 |
| TCCCTGGGAGTCCCAGAGA | 0.115 |
| TCCCCGGTAGTGGTGGAGA | 0.137 |
| TCCCTCGTAGTAGAAGAGA | 0.184 |
| TCCCCATTAGTCGCCGAGA | 0.26 |
| TCCCGTGTAGTTTCGGAGA | 0.186 |
| TCCCATGGAGTGACAGAGA | 0.553 |
| TCCCCAGAAGTGGCTGAGA | 0.284 |
| TCCCGGTTAGTTCTTGAGA | 0.0327 |
| TCCCGGGGAGTTTCAGAGA | 0.249 |
| TCCCTGTTAGTACGAGAGA | 0.104 |
| TCCCTTTGAGTGGGGGAGA | 0.214 |
| TCCCGTAAAGTTATAGAGA | 0.17 |
| TCCCTTGCAGTATCTGAGA | 0.0927 |
| TCCCTTGCAGTCGACGAGA | 0.213 |
| TCCCTGTGAGTATTGGAGA | 0.205 |
| TCCCGCGAAGTGTGAGAGA | 0.286 |
| TCCCGCGAAGTCGTCGAGA | 0.17 |
| TCCCATGGAGTACGAGAGA | 0.181 |
| TCCCTCAAAGTGGAAGAGA | 0.199 |
| TCCCGGGTAGTAAGGGAGA | 0.163 |
| TCCCGGTGAGTTCCCGAGA | 0.0697 |
| TCCCAGGAAGTTGATGAGA | 0.143 |
| TCCCATAGAGTATGGGAGA | 0.0311 |
| TCCCCGAGAGTGACAGAGA | 0.213 |

| Sequence | TetR repression strength |
| --- | --- |
| TCCCGAATAGTACTTGAGA | 0.354 |
| TCCCCATAAGTGAGTGAGA | 0.4 |
| TCCCGGATAGTTGATGAGA | 0.285 |
| TCCCAGGAAGTCCTGGAGA | 0.268 |
| TCCCGGGAAGTGGGAGAGA | 0.274 |
| TCCCAGCTAGTGATAGAGA | 0.626 |
| TCCCGTCGAGTGGAGGAGA | 0.193 |
| TCCCTTCTAGTCTAAGAGA | 0.306 |
| TCCCGAGCAGTAACTGAGA | 0.149 |
| TCCCTAGTAGTGTCTGAGA | 0.265 |
| TCCCCATGAGTGCTCGAGA | 0.394 |
| TCCCGCATAGTATGTGAGA | 0.222 |
| TCCCGCACAGTTGGGGAGA | 0.224 |
| TCCCCCATAGTTTATGAGA | 0.288 |
| TCCCTCAAAGTGGCTGAGA | 0.301 |
| TCCCTGTCAGTGTGAGAGA | 0.0482 |
| TCCCCGCCAGTGGATGAGA | 0.377 |
| TCCCACACAGTGCAGGAGA | 0.236 |
| TCCCCTGTAGTCACAGAGA | 0.104 |
| TCCCATCCAGTTGCCGAGA | 0.298 |
| TCCCAAGCAGTTGTGGAGA | 0.196 |
| TCCCTGCAAGTTACCGAGA | 0.263 |
| TCCCTTTCAGTCGATGAGA | 0.473 |
| TCCCGAAAAGTTTAAGAGA | 0.31 |
| TCCCGGCTAGTACAAGAGA | 0.39 |
| TCCCTCGTAGTTCGAGAGA | 0.267 |

| Sequence | TetR repression strength |
| --- | --- |
| TCCCTAGTAGTCGTAGAGA | 0.272 |
| TCCCTAAGAGTCTCGGAGA | 0.0925 |
| TCCCGTGCAGTAACAGAGA | 0 |
| TCCCGCCGAGTCTGAGAGA | 0.111 |
| TCCCCCACAGTGACTGAGA | 0.223 |
| TCCCACTCAGTTGAGGAGA | 0.0364 |
| TCCCGCTGAGTCATGGAGA | 0.191 |
| TCCCGACGAGTGCAAGAGA | 0.352 |
| TCCCGGGAAGTCTGGGAGA | 1.24 |
| TCCCGTCAAGTGTCCGAGA | 0.279 |
| TCCCCCGTAGTGCGCGAGA | 0.0565 |
| TCCCTAATAGTAAAGGAGA | 0.293 |
| TCCCACGTAGTAGCGGAGA | 0.125 |
| TCCCGCAGAGTGGATGAGA | 0.259 |
| TCCCCCCGAGTACAAGAGA | 0.207 |
| TCCCTATCAGTGGGCGAGA | 0.541 |
| TCCCTAAGAGTCTTCGAGA | 0.565 |
| TCCCTCAGAGTCGGGGAGA | 0.277 |
| TCCCGAAGAGTATAAGAGA | 0.222 |
| TCCCCAGGAGTTGCGGAGA | 0.173 |
| TCCCTGTAAGTGCCGGAGA | 0.312 |
| TCCCGTGGAGTGGCGGAGA | 0.247 |
| TCCCTATGAGTGGGGGAGA | 0.147 |
| TCCCGATCAGTAGACGAGA | 0.237 |
| TCCCATGGAGTATGAGAGA | 0.417 |
| TCCCGGACAGTTCGGGAGA | 0.338 |

| Sequence | TetR repression strength |
| --- | --- |
| TCCCCGAGAGTGAAAGAGA | 0.289 |
| TCCCAGGTAGTCACGGAGA | 0.424 |
| TCCCAAGAAGTGTTGGAGA | 0.421 |
| TCCCTCACAGTGTCCGAGA | 0.308 |
| TCCCTACCAGTGAAAGAGA | 0.415 |
| TCCCTTATAGTATCAGAGA | 0.186 |
| TCCCGGTAAGTACGTGAGA | 0.217 |
| TCCCCATGAGTTGTTGAGA | 0.306 |
| TCCCATACAGTGGTGGAGA | 0.171 |
| TCCCATGTAGTGATAGAGA | 0.265 |
| TCCCGGCAAGTTTTTGAGA | 0.238 |
| TCCCCAGTAGTCTGAGAGA | 0.0196 |
| TCCCACGTAGTGGCGGAGA | 0.163 |
| TCCCAAACAGTGAATGAGA | 0.232 |
| TCCCAACTAGTCGTCGAGA | 0.214 |
| TCCCTATCAGTGAGAGAGA | 0.948 |
| TCCCCGCGAGTAGCAGAGA | 0.13 |
| TCCCGCTAAGTTAGGGAGA | 0.286 |
| TCCCAACGAGTGTCTGAGA | 0.314 |
| TCCCAAGGAGTGTTTGAGA | 0.227 |
| TCCCATTGAGTGGTTGAGA | 0.11 |
| TCCCTCTGAGTGCCCGAGA | 0.261 |
